According to PubChem BioAssay AID1159614 (National Center for Advancing Translational Sciences (NCATS), 2016):
Among all 45,000 compounds or so, about 65 (0.1%) were called active. Calls follow the shape of the dose curve; as a rule, active = well fitted activation curve with a large enough effect; inconclusive = small, poorly fitted or top-dose-only effect; inactive = no such curve, though single readings can be large or run the other way. The list shows a part of the results.

Target: Galactocerebrosidase (Homo sapiens) (UniProt P54803)
Assay: A Novel Cell-Based Assay to Identify Small Molecules for B -Galactocerebrosidase; also: 0% is about no effect; nearly all actives have a fitted effect of over 65% in size
Details: 145M-Twi-hGALC-G270D cells (Twitcher mouse brain line with human GALC G270D), HMU-beta-Gal fluorescence, 48 h; series mostly up to 57.5 µM; activation: at the top concentration
Procedure, shortened: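 Brain-derived Twitcher mouse 145M-Twi cells stably expressing human GALC-G270D or wild-type GALC, treated live, then residual GALC activity read by fluorescence of HMU-b-Gal substrate (0.1 mM final) in citrate-phosphate buffer pH 5.2 with sodium taurocholate. Signal increase indicates enhancement.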

Sequence of UniProt P54803 (P54803 whole entry, looked up): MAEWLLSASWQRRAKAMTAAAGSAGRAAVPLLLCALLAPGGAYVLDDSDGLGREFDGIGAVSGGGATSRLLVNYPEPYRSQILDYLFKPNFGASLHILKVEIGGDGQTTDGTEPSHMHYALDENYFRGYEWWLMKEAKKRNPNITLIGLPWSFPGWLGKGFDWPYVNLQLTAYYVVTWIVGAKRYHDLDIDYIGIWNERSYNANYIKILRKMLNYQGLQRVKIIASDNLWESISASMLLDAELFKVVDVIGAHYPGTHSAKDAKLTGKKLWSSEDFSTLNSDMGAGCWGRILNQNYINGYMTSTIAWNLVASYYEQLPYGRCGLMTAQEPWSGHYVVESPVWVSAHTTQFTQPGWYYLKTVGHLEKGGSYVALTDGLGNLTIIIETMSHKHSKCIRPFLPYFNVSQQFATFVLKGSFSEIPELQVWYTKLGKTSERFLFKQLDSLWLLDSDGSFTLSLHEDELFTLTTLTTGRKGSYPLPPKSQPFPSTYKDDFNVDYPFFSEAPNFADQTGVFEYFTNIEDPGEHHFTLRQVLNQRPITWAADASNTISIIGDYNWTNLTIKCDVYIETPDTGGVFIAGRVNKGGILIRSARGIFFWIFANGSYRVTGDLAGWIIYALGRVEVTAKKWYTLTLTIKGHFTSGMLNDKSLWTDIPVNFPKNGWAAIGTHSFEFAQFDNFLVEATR

activation, inactive:
FC(F)(F)c1cccc(N2CCN(Cc3nnc(-c4ccccc4)o3)CC2)c1 -7.7%
N#Cc1ccc(NC(=O)COCc2cc(-c3ccc(F)cc3)on2)cc1 -11.1%
COC(=O)c1cc2oc(C)cc2n1Cc1ccc(Cl)cc1 -22.7%
COc1cccc(NC(=O)CN2C(=O)C3(SCC(=O)N3c3cc(C)cc(C)c3)c3ccccc32)c1 (stereo unspecified) -19.3%
Cc1ccc(NC(=O)C2CCN(S(=O)(=O)c3c(C)noc3C)CC2)cc1C -15.4%
Cc1ccc(CN2C(=O)N(c3ccc(C)c(Cl)c3)S(=O)(=O)c3ccccc32)cc1 -22.4%
CCOC(=O)CSc1nc2ccccc2n2c(C)nnc12 -8.51%
O=C(CSc1nccn1C1CCCC1)Nc1ccccc1 -8.04%
CCN(CC)C(=O)C1CCN(C(=O)c2cnn(-c3ccccc3)c2-n2cccc2)CC1 -11.3%
CCOc1ccc(CNC(=O)c2cnc(SC)nc2C)cc1 -15.4%
COC(=O)c1c(-c2cccs2)csc1NC(=O)COc1ccc(C(C)C)cc1 -6.35%
CCOC(=O)C1CCN(C(=O)c2nn(-c3ccc(C)cc3)c(=O)n(C)c2=O)CC1 -16.6%
CCc1ccc(CNC(=O)c2ccc(CS(=O)(=O)Cc3ccccc3C)o2)cc1 -20.6%
O=C(Nc1ccc(Cl)cc1C(F)(F)F)c1cc(S(=O)(=O)NCc2ccccc2)ccc1F -8.37%
Cc1ccccc1OCC(=O)Nc1nnc(S(=O)(=O)N(C)c2ccccc2)s1 -18.6%
COc1ccccc1N1CCN(C(=O)c2cc3c(=O)n(Cc4cccnc4)ccc3nc2C)CC1 -10.8%
O=C(Cn1c(=O)n(-c2ccccc2)c(=O)c2c3c(sc21)CCCC3)Nc1ccc(F)cc1 -8.52%
CCC1Oc2ccccc2N(CC(=O)NCc2ccc(C)cc2)C1=O (stereo unspecified) -6.91%
Cc1ccc(Cl)cc1N1CCN(C(=O)c2cn(C)c3ccc(S(=O)(=O)N4CCCC4)cc3c2=O)CC1 27.5%
CCOc1ccc(-n2ccnc2SCC(=O)Nc2ccc(OC)cc2OC)cc1 -16.5%
CC1=C(C(=O)OC2CCCC2)C(c2cccc(Cl)c2Cl)CC(=O)N1 (stereo unspecified) -13.3%
CCn1c2c(c(=O)n3ncc(C(=O)Nc4ccc(F)c(Cl)c4)c13)CN(Cc1ccc(OC)cc1)CC2 -28.6%
CC(=O)c1ccc(NC(=O)COc2ccccc2-c2nc(C)no2)cc1 2.13%
CCOc1ccc(C(=O)OCc2cc(=O)n3nc(C(C)C)sc3n2)cc1 -14.7%
CC(C)CC(=O)N(Cc1ccccc1)S(=O)(=O)c1ccc2c(c1)oc(=O)n2C -9.64%
CN(C)[C@@H]1C(=O)C(C(=O)NCN2CCCC2)=C(O)[C@@]2(O)C(=O)C3=C(O)c4c(O)cccc4[C@@](C)(O)C3C[C@@H]12 (stereo partly specified) -6.78%
Oc1cccc2[nH]ccc12 -8.26%
CCN1CCN(c2ncc3c(n2)CCN(Cc2ccc(C)s2)C3)CC1 -12.5%
COc1ccc(Br)cc1CNC(=O)c1cc2c(=O)n(C)c3ccccc3c2s1 -15%
Cc1cccc(CCNC(=O)c2nc(-c3ccc(Cl)cc3)n3c2CCCCC3)c1 -5.01%
Fc1ccc(C(c2ccc(F)cc2)N2CCNCC2)cc1 -9.47%
Cc1ccc(S(=O)(=O)c2cn(CC(=O)Nc3ccccc3)c3cc4c(cc3c2=O)OCO4)cc1 2.78%
Cc1ccc(-c2nc(CS(=O)CC(=O)O)c(C)o2)cc1 (stereo unspecified) -3.76%
Nc1nonc1-c1nc2ccccc2n1CC(=O)Nc1ccc(F)cc1 -6.6%
CC(=O)c1cc(-c2ccccc2)n(CC(=O)Nc2ccc(C)cc2C)c1C 0.528%
CCc1ccc(Nc2nc3ccccc3c3nnc(C)n23)cc1 -10.3%
Cc1cccc(N2CCN(C(=O)c3ccc4c(c3)CCN4S(=O)(=O)c3ccccc3)CC2)c1C -10.7%
CCOc1ccccc1NC(=O)NC(CC)c1c(-n2cccc2)sc2c1CCN(C)C2 (stereo unspecified) -11.4%
CCOC(=O)c1cc(OC(=O)c2cc(Cl)ccc2OC)n(-c2ccccc2)n1 -8.46%
CCc1ccc(S(=O)(=O)c2nnn3c2nc(NCCC(C)C)c2cc(Cl)ccc23)cc1 -15%
CCc1ccccc1NC(=O)CSc1nccn1C -7.61%
CCOc1ccc(NS(=O)(=O)c2ccc3[nH]cc(C(=O)NCCc4ccccc4)c(=O)c3c2)cc1 20.4%
COc1ccccc1Nc1ncnc2c1nc1n2CCCCC1 -9.43%
Cn1c(SCC(=O)Nc2ccccc2F)nc2c([nH]c3ccccc32)c1=O 2.21%
COc1ccc2c(c1)c(CC(=O)Nc1cc(C)c(OC)c(C)c1)c(C)n2C(=O)c1ccc(Cl)cc1 -18.1%
CC(=O)c1ccc(OC(=O)c2c(-c3ccccc3Cl)noc2C)cc1 -8.41%
CCCN(CCC)S(=O)(=O)c1ccc(C(=O)N2CCn3c4c(c5cc(C)ccc53)CCCC42)cc1 (stereo unspecified) -9.26%
Cn1nc(C(=O)Nc2cccc(C(F)(F)F)c2)c2c1-c1ccccc1S(=O)(=O)C2 -13.1%
O=C(COc1ccc(Cl)cc1Cl)Nc1ccc(C(=O)OC2CCCCC2)cc1 -2.55%
COc1ccc(NC(=O)c2ccco2)cc1NC(=O)c1ccc(OC(C)C)cc1 -6.33%
Cc1cc(C)cc(OC(C)C(=O)Nc2nc3c(s2)CCCC3)c1 (stereo unspecified) -28.3%
COc1ccc(CCNC(=O)Cn2nc(-c3ccc(Cl)cc3)ccc2=O)cc1OC 7.43%
CCOc1ccc(Nc2ncnc3onc(-c4ccc(Cl)cc4)c23)cc1 -6.03%
COc1cn(CC(=O)Nc2cccc(C)c2)c(CN2CCCCC2)cc1=O -5.11%
CCOC(=O)c1ccc(NC(=O)C2CCCN(c3cnccn3)C2)cc1 (stereo unspecified) -8.6%
COc1ccc(Oc2ncnc3c2oc2ccccc23)cc1 -11%
CCCC(C(=O)Nc1cc(C)c(Cl)cc1OC)N1Cc2ccccc2C1=O (stereo unspecified) -15.8%
COc1cc(NC(=O)Cn2cc(S(=O)(=O)N3CCC(C)CC3)c3ccccc3c2=O)cc(OC)c1OC -17.8%
COc1cccc(/C=C(\C#N)c2nc3ccccc3c(=O)[nH]2)c1OC -3.97%
CCOC(=O)C1=C(CNCc2ccc(Cl)cc2)NC(=O)NC1c1ccccc1 (stereo unspecified) -35.1%
CC(=O)N1c2ccccc2CC1C(=O)N1CCN(c2ccccc2F)CC1 (stereo unspecified) -8.37%
CCOC(=O)c1cc(-c2ccc(OC)cc2)n(CCC(=O)NCCc2ccc(OCC)c(OCC)c2)c1C -20.4%
CCn1cc(/C=C(\NC(=O)c2ccc(OC)c(OC)c2)C(=O)NCCCn2ccnc2)c2ccccc21 -12.9%
Cc1ccc(NC(=O)N2CCC(CN3CCCCC3)CC2)c(Cl)c1 -9.74%
Cc1ccc(OCC(=O)Nc2ccc(C(=O)OCc3cc(=O)n4ccsc4n3)cc2)cc1C -23.7%
CC(=O)c1ccc(N2CCN(S(=O)(=O)c3ccc(-c4cnc(C5CC5)o4)cc3)CC2)cc1 -11.4%
Cc1nc2sccn2c(=O)c1S(=O)(=O)Nc1cccc(Cl)c1C -8.93%
CN(C)c1ccc(CNC(=O)C2CCN(C(=O)c3ccc(-n4ccc5ccccc54)s3)CC2)cc1 -18.3%
COc1cc([N+](=O)[O-])ccc1NC(=O)N1CCC2(CC1)Nc1cc(F)ccc1-n1cccc12 -10.3%
Cc1ccc(N2CCN(C(=O)CCS(=O)(=O)c3cc4c(cc3Cl)NC(=O)CO4)CC2)c(C)c1 -5.81%
CC1CCN(c2nc3c(S(=O)(=O)c4cccc(Cl)c4)nnn3c3ccsc23)CC1 -10.9%
CC(C)(C)OC(=O)N1CCC(c2c(C(=O)N3CCN(c4ncccn4)CC3)cnn2-c2ccc(F)cc2)CC1 -6.31%
CCOC(=O)c1c(-c2ccc(OC)cc2)oc2ccc(OCc3ccc(F)cc3F)cc12 -13.6%
Cc1ccccc1Nc1nnc(-c2ccc(C)c(S(=O)(=O)NCC3CCCO3)c2)c2ccccc12 (stereo unspecified) -14.2%
CCCCNc1nc2c(-c3cccc(Br)c3)nnn2c2ccccc12 -14.8%
CCOC(=O)c1ccc(NC(=O)C(CC)Sc2nncn3c2cc2oc(C)cc23)cc1 (stereo unspecified) -12.7%
COc1ccc(C2=Nc3ccccc3N(CC(=O)Nc3cccc(C(C)=O)c3)C(=O)C2)cc1 6.19%
COc1ccc(CNS(=O)(=O)c2csc(C(N)=O)c2)cc1OC -10.1%
Cc1cn2c(=O)cc(COC(=O)c3ccc(NC(=O)c4ccc(C(C)(C)C)cc4)cc3)nc2s1 2.64%
O=C1Nc2c(c(=O)[nH]c(=O)n2-c2ccc(F)cc2)C1(NS(=O)(=O)c1ccc(Cl)cc1)C(F)(F)F (stereo unspecified) -5.94%
Cn1nnnc1SCCCNCc1cc(Cl)ccc1OCc1ccccc1 -7.28%
COc1ccc(OCCCn2c(C)nc3cc(C)c(C)cc32)cc1 -10.3%
CCC1=C(c2ccc(C)cc2)S(=O)(=O)N=C1N1CCC(C(=O)NCCc2cccc(OC)c2)CC1 -9.83%
COc1cccc2c1cc1c(=O)n(CC(=O)NCCCN3CCN(C)CC3)nc(C)n12 -14.9%
Cc1cn2c(=O)c(S(=O)(=O)NCCc3ccc(Cl)cc3)c(C)nc2s1 -14.1%
CCc1ccc(NC(=O)C2CCCN2S(=O)(=O)c2cccc3nsnc23)cc1 (stereo unspecified) -15.2%
COc1cc(C(=O)Nc2nnc(CC(C)(C)C)s2)cc(OC)c1OC -6.15%
CC(=O)N1CCc2c(sc3c2c(=O)n(-c2ccccc2)c(=O)n3CC(=O)c2ccc(F)cc2)C1 -18.6%
CC(C)c1nn2c(=O)cc(COC(=O)c3ccc4c(c3)OCO4)nc2s1 -3.46%
COC(=O)c1ccc(OCC2c3cc(OC)c(OC)cc3CCN2C(=O)Cc2ccc(OC)c(OC)c2)cc1 (stereo unspecified) -15.5%
Cn1cc(-c2cc3n(n2)CCC(=O)N3CCCC(=O)NCc2ccccc2)c2ccccc21 -14.3%
COc1ccc(CNC(=O)CN(C)S(=O)(=O)c2ccc3[nH]c4c(c3c2)CCCC4)cc1 1.29%
CCOC(=O)C1CCC(CN(Cc2ccc(OC)cc2)S(=O)(=O)c2ccc(F)c(C(=O)Nc3cc(Cl)ccc3OC)c2)CC1 (stereo unspecified) -12.6%
COc1ccc(NC(=O)Cc2ccc(NC(=O)N3CCCCc4ccccc43)cc2)c(OC)c1 -7.96%
CCN(CC)CCNC(=O)Cn1cnc2sc(C)c(S(=O)(=O)N3CCC(C)CC3)c2c1=O -13%
CC(C)c1ccc(NC(=O)c2cc(S(=O)(=O)NCCC3=CCCCC3)ccc2F)cc1 -9.94%
